Molecules are shown by their SMILES. Over roughly 13,000 compounds, “IFI” has its median near 4; the highest 2% begin near 17. The list shows a part of the results.

The nature of this assay: GSK_TCMDC: Inhibition Frequency Index (IFI). The number of non-kinase HTS assays where a compound showed > 50 % inhibition, expressed as a percentage of the number of such assays in which the compound was tested (-0 is zero). Type of assay: functional.
With `O=C(OCc1ccccc1)N1CCc2c([nH]c3ccccc23)C1CCC(F)(F)F` (stereo not given), the IFI was 2.88%.

On to `O=C(NCCc1ccccc1)c1cc(-c2cccnc2)cnc1NCC1CC1`, for which the IFI worked out at 1.89%.

On to `CCCc1cc(OCCCOc2ccccc2)ccc1OCCCON1C(=N)N=C(N)NC1(C)C`, for which the IFI is 21.1%.

`CN(C)c1ccc(-c2csc(C(=O)NC3CCCCN(Cc4ccc(C(C)(C)C)cc4)C3)c2)cc1` (stereo not given) registered an IFI of 1.82%.

Turning to `CC(C)CCCC(C)(C)NC[C@@H](O)[C@H](Cc1ccccc1)NC(=O)c1cccc(OCC2CC2)c1`, the IFI came to 18.6%.

Take `CN1CCN(Cc2cccc(-c3ccc4c(Nc5ccc(Oc6ccccc6)cc5)ccnc4c3)c2)CC1`: the IFI worked out at 10.1%.

In turn, `COc1c(I)cc(Cc2cnc(N)nc2N)cc1I` gave an IFI of 7.3%.

`Fc1ccc2[nH]c(-c3cccc(-c4ccc(CN5CCCCC5)cc4)c3)nc2c1`: the IFI is 2.9%.

As for `CCC(CO)NCC(O)Cn1c2ccc(Cl)cc2c2cc(Cl)ccc21` (stereo not given), the IFI came to 5.22%.

On to `Cc1c(NC(=O)COc2ccc(Cl)cc2C(=O)c2cc(F)cc(C(F)(F)F)c2)ccc2ncsc12`, for which the IFI stood at 4.62%.

`Cc1ccc2c(O)c([N+](=O)[O-])c(O)nc2c1`: the IFI turned out to be 3.03%.

For `C[C@H](NC(=O)c1c(CN2CCC(N3CCCCC3=O)CC2)c(-c2cccs2)nc2ccccc12)C1CCCCC1`, the IFI amounted to 6.11%.

Take `Cc1cccc2nc(-c3ccc(-c4cccc(CN5CCC(C(N)=O)CC5)c4)cc3)[nH]c12`: the IFI was found to be 0.98%.

The compound `O=C(NCCCCCN1CCCN(C(=O)Nc2ccc(Cl)c(C(F)(F)F)c2)CC1)C1CC1c1ccc(Cl)c(Cl)c1` (stereo not given) displayed an IFI of 15.1%.

With `COc1ccc(C2CCN(CCCCNC(=O)c3ccc(NC(=O)c4ccc(Cl)cc4)cc3)CC2)cc1Cl`, the IFI was determined as 2.75%.

The compound `COc1ccc2nccc([C@@H](O)CN3CCC(NCc4ccc5c(c4)NC(=O)CS5)CC3)c2n1` registered an IFI of 3.68%.

Regarding `Cc1cccc(C)c1CNc1ccnc2cc(C#N)ccc12`, the IFI is 1.75%.

In turn, `N=C(N)CCN(Cc1ccccc1)c1ccc(Cl)cc1` had an IFI of 2.16%.

`COc1ccc(-c2cccc(NC(=O)c3ccc(C#N)cc3)c2)cc1CN1CCN(C)CC1`: the IFI came to 3.96%.

In turn, `N=C(N)NC(=O)Nc1cc(F)c(Cl)c(Cl)c1` returned an IFI of 1.54%.

`CCn1c(Sc2ccc(C#N)c([N+](=O)[O-])c2)nnc1-c1ccc(Cl)cc1` showed an IFI of 2.86%.

Compound `CCC(CO)NCC(O)Cn1c2ccc(Br)cc2c2cc(Br)ccc21` (stereo not given) had an IFI of 8.21%.

For `CC(C)(C)c1ccc(CN2CCCCC(NC(=O)c3cc(-c4cccc(Cl)c4)cs3)C2)cc1` (stereo not given), the IFI stood at 1.82%.

As to `COc1ccc(CCNCCCCCCNCCCc2ccc(Cl)cc2)cc1OC`, the IFI amounted to 4.23%.

As to `COc1ccc(N2CCN(CCCCNC(=O)c3ccc(NC(=O)c4ccc(Cl)cc4)cc3)CC2)c(C)c1`, the IFI stood at 7.21%.

`Cc1ccc(Nc2nc(-c3ccccn3)cs2)nc1` displayed an IFI of 13.8%.

`CC(C)Nc1cc(C(=O)N[C@@H](Cc2ccccc2)[C@H](O)CNC2CCOCC2)c(F)c(N2CCCCS2(=O)=O)c1` showed an IFI of 2.24%.

`COc1cc(OC)cc(-c2nn(-c3ccc([N+](=O)[O-])cc3Cl)c(=S)n2CC2CCCO2)c1` (stereo not given) had an IFI of 2.68%.

In turn, `O=S(=O)(NCCN1CCCC1)c1ccc(-c2cccc(CNCc3ccccc3)c2)s1` yielded an IFI of 6.09%.

`CCNc1cc(C(=O)N[C@@H](Cc2ccco2)[C@H](O)CNC2CCCCC2)cc(N2CCCCS2(=O)=O)c1` showed an IFI of 0.74%.

As for `Cc1ccc2c(NC(=O)Nc3ccc(N(C)C)cc3)cc(C)nc2c1`, the IFI worked out at 8.89%.

`CN1CCN=C1c1ccc(NC(=O)Nc2ccc(C3=NCCN3C)cc2)cc1`: the IFI is 1.42%.

For `CC(=O)CC(=O)N1CCN(c2ccccc2)CC1`, the IFI worked out at 0.74%.

`O=C(Nc1ccccc1)c1cccc(Nc2nccc(Nc3ccc(Oc4ccccc4)cc3)n2)c1` came in with an IFI of 1.48%.

On to `N#Cc1ccc(N[C@@H](CC2CCCCC2)C(=O)NCc2cc(Cl)cc(Cl)c2)c2ccccc12`, for which the IFI was 3.74%.

As to `Cn1ccc2c3c(N)nc(N)nc3ccc21`, the IFI stood at 2.16%.

For the compound `O=C(Nc1ccc2oc(-c3ccc(Br)cc3)nc2c1)c1ccc([N+](=O)[O-])o1`, the IFI came to 0.72%.

In turn, `Cc1cc(N[C@@H](CC(C)C)C(=O)Nc2ccccc2)nc(Nc2ccccc2)n1` displayed an IFI of 9.3%.

The compound `CN(C)CC1CCCN1Cc1ccccc1-c1cnn(C)c(=O)c1Oc1cccc(C#N)c1` (stereo not given) yielded an IFI of 0%.

The compound `Cc1cc([N+](=O)[O-])ccc1NC(=O)Nc1cccc(C(F)(F)F)c1` came in with an IFI of 7.89%.

Regarding `N#Cc1c(N)n(CCc2ccc(F)cc2)c2nc3ccccc3nc12`, the IFI was 2.82%.

In the case of `CC1CN(c2ncc(-c3ccc(CNC4Cc5ccccc5C4)cc3)cn2)CC(C)N1` (stereo not given), the IFI came out at 11.4%.

In the case of `COc1cc(Nc2nccc(N3CCC(NC(=O)C(C)c4ccc(Cl)cc4)C3)n2)cc(OC)c1OC` (stereo not given), the IFI is 4.62%.

The compound `O=C(CC1NC(=O)c2ccccc21)Nc1ccc(-c2cccc(-c3nc4cc(C(F)(F)F)ccc4[nH]3)c2)cc1` (stereo not given) came in with an IFI of 5.5%.

Regarding `COc1cc(CCN(C)Cc2ccc(OC)c(OC)c2)ccc1NC(=O)c1cccc2c(O)c3cccc(F)c3nc12`, the IFI came to 4.39%.

Consider `O=C(N[C@@H](Cc1ccccc1)C(=O)NC1CCCCC1)c1ccc(O)c(-c2cccc(C(F)(F)F)c2)c1`, for which the IFI was 2.92%.

In turn, `COc1cc(C2CCCCC2)c(OC)cc1CC1c2cc(O)c(Cl)cc2CCN1C` (stereo not given) showed an IFI of 5.04%.

On to `O=C(Nc1ccc(C(F)(F)F)cc1)c1ccc(S(=O)(=O)NC2CCN(CC3CCCCC3)CC2)cc1`, for which the IFI is 2.41%.

On to `Cc1nc2ccccn2c1C1(O)C(=O)Nc2c(Cl)cc(Cl)cc21` (stereo not given), for which the IFI is -0%.

`CN(C)CCOc1cc(NC(=O)Nc2ccc(-c3ccncc3)c3ccccc23)ccc1I`: the IFI was found to be 8.33%.

`CC(C)CNCc1ccc(-c2cccc(CNc3ccc4ncccc4c3)c2)cc1` had an IFI of 8.51%.

As to `O=C(Nc1cccc(-c2ccc(-c3nc4cc(C(F)(F)F)ccc4[nH]3)cc2)c1)Nc1ccc(F)c(F)c1F`, the IFI stood at 9.8%.

Regarding `COc1ccc2ncc(F)c(CCN3CC[C@@H](CNCc4cc5c(cn4)OCS5)C3)c2n1`, the IFI came out at 2.86%.

Consider `CCCNCc1ccc(-c2ccc(CN(CCOC)C(=O)[C@H]3CCCO3)cc2)nc1`, for which the IFI stood at 0.69%.

Compound `Cc1cc(=NN=Cc2ccc(Cl)cc2)c2cc(F)ccc2[nH]1` had an IFI of 0.72%.

In the case of `COc1ccc2nccc([C@@H](O)CNCCCN(C)CCOc3cc(F)cc(F)c3)c2c1`, the IFI is 2.84%.

`COc1cccc(CNC[C@@H](O)[C@H](Cc2ccccc2)NC(=O)c2cc(OC(C)C)cc(N3CCCCS3(=O)=O)c2)c1` returned an IFI of 5.93%.

Take `Cc1cc(NC(=O)NCCN2CCC(NC(=O)c3ccc(Cl)cc3)CC2)c2ccccc2n1`: the IFI is 0.85%.

`CSCCCN1CCC(O)(c2ccc3oc(C(=O)Nc4ccc5sc(C)nc5c4)cc3c2)CC1` came in with an IFI of 0%.

On to `COc1ccccc1NC(=O)Nc1ccc(-c2ccc(-c3nc4cc(C(F)(F)F)ccc4[nH]3)cc2)cc1`, for which the IFI came out at 3.03%.

For `CC1CN(Cc2cccc(-c3ccc(-c4nc5ccccc5[nH]4)cc3)c2)CC(C)O1` (stereo not given), the IFI is 1.41%.

Regarding `COc1ccc(CN(C)CCCCc2ccc(NC(=O)COc3cccc4sc5ccccc5c(=O)c34)cc2)cc1OC`, the IFI turned out to be 6.67%.

Consider `CCOc1cc(CC)ccc1C1CCN(CCCCNC(=O)c2ccc(NC(=O)c3ccc(Cl)cc3)cc2)CC1`, for which the IFI stood at 2.21%.

`Cc1cc(CNC(=O)[C@H](CC2CCCCC2)Nc2ccc(C#N)c3ccccc23)c(C(F)(F)F)o1` registered an IFI of 2.8%.

On to `CC(C)N1CCC(N(Cc2ccc(-c3ccc(C(F)(F)F)cc3)cc2)C(=O)Cn2c(CCc3cccc(F)c3F)nc(=O)c3cccnc32)CC1`, for which the IFI was found to be 16.1%.

Compound `FC(F)(F)c1cccc(Nc2nc(-n3ccnc3)nc(-n3ccnc3)n2)c1` showed an IFI of 0.7%.

For `O=C(Nc1ccc(OC2CCN(Cc3ccccc3)CC2)c(Cl)c1)c1ccsc1`, the IFI came out at 1.67%.

As for `O=C(N[C@@H](Cc1ccccc1)C(=O)NC1CCCCCC1)c1ccc(O)c(-c2ccc(Cl)c(Cl)c2)c1`, the IFI stood at 1.48%.

For the compound `Cc1[nH]c(C)c(-c2ccc(OCc3ccc(F)cc3)cc2)c(=O)c1Br`, the IFI came to 0%.

As for `CCCOc1ccc(N2C(N)=NC(N)=NC2(C)C)cc1`, the IFI was 1.54%.

As to `CCCC(=O)NC(NC(=S)Nc1ccc([N+](=O)[O-])cc1)C(Cl)(Cl)Cl` (stereo not given), the IFI worked out at 7.64%.

Consider `OCCC1CCN(Cc2ccc(-c3ccc(-c4nc5ccccc5[nH]4)cc3)cc2)CC1`, for which the IFI was 4.23%.

With `O=S(=O)(NCCN1CCCC1)c1ccc(-c2cccc(CNC3Cc4ccccc4C3)c2)cc1F`, the IFI turned out to be 7.83%.

For `CCS(=O)(=O)N1CCN(c2nc(-c3ccccc3)nc(COC)c2Cc2ccccc2F)CC1`, the IFI came to 3.45%.

In turn, `COc1ccc2cc(C(C)NC3CCN(c4cccc(NC(=O)c5ccncc5)c4)CC3)ccc2c1` (stereo not given) had an IFI of 2.44%.

Compound `CN1CCc2cc(NS(=O)(=O)c3ccc(-c4ccc(Cl)s4)cc3)c(N3CCCCC3)cc2CC1` came in with an IFI of 5.56%.

Take `O=C(NC1CCCCCC1)C1CCCN(C(=O)c2ccc(O)c(-c3ccc(Cl)c(Cl)c3)c2)C1` (stereo not given): the IFI was determined as 2.24%.

On to `COc1cc(OC)cc(C(=O)Nc2ccc(Nc3nc(C)cc(N(C)C)n3)cc2)c1`, for which the IFI came out at 5.56%.

Regarding `COc1cccc(C(=O)Nc2ccc(S(=O)(=O)c3cc4c(cc3OC)CCN(C)CC4)cc2)c1`, the IFI is 1.85%.

`N#Cc1cccc(-c2cccc(C(=O)NC3CCC(CCN4CCc5ccc(C#N)cc5CC4)CC3)c2)c1` (stereo not given) came in with an IFI of 6.72%.

Consider `Cc1cccc2nc(-c3cccc(-c4cccc(NC(=O)c5ccoc5)c4)c3)[nH]c12`, for which the IFI turned out to be 6.19%.

In turn, `CC(C)(C)OC(=O)N[C@@H](CS(=O)(=O)CCNC(=N)COCc1ccccc1)C(=O)OC(C)(C)C` had an IFI of 0.74%.

On to `OCC1CCN(Cc2cccc(-c3ccc(-c4nc5cc(C(F)(F)F)ccc5[nH]4)cc3)c2)CC1`, for which the IFI stood at 2.97%.

For `CN(C)c1cccc2c1nc(-c1ccc3c(c1)CCO3)n2CCNCc1ccccc1`, the IFI came to 4.2%.

`Cc1cc(NC(=O)Nc2cccc(N(C)C)c2)c2ccccc2n1` showed an IFI of 6.85%.

Turning to `O=C(Nc1cccc(C(F)(F)F)c1)c1ccc(S(=O)(=O)NC2CCN(CC3CCCCC3)CC2)cc1`, the IFI worked out at 5.05%.

`CN(C)CCC=C1c2ccccc2Sc2c(O)cc(Cl)cc21` gave an IFI of 6.87%.

With `c1ccc2c(c1)CN(CC1CCOCC1)CC1(CCN(Cc3c[nH]c4cnccc34)CC1)O2`, the IFI is -0%.

`CC(=O)C1=NN(c2ccc(Cl)cc2)C(c2cccs2)N1c1ccccc1` (stereo not given) had an IFI of 0.7%.

`COc1ccc(-c2ccc(NC(=O)c3cccs3)cc2)cc1CN1CCCN(C)CC1` came in with an IFI of 4.85%.
